We go through 31 compounds from PubChem BioAssay AID488969 (Vanderbilt High Throughput Screening Facility, 2010).

In all, about 110,000 compounds were measured (“z-score”: median about -0.1, highest 2% from about 2 on). This is one part of the list.

For this assay, the target named is Metabotropic glutamate receptor 8 (Rattus norvegicus) (UniProt P70579). The experiment in a line: mGluR8 Gi/Go-coupled signaling modulation – cell-based, rat, thallium flux, HTS, primary screen (AID 488969). The note with it: HEK293 rat mGluR8, GIRK (G protein-gated inwardly rectifying potassium channel) thallium flux, FluoZin2; at 10 µM; stronger effect = higher value; submaximal glutamate (EC20) added with thallium.
Sequence of UniProt P70579 (P70579 whole entry, looked up): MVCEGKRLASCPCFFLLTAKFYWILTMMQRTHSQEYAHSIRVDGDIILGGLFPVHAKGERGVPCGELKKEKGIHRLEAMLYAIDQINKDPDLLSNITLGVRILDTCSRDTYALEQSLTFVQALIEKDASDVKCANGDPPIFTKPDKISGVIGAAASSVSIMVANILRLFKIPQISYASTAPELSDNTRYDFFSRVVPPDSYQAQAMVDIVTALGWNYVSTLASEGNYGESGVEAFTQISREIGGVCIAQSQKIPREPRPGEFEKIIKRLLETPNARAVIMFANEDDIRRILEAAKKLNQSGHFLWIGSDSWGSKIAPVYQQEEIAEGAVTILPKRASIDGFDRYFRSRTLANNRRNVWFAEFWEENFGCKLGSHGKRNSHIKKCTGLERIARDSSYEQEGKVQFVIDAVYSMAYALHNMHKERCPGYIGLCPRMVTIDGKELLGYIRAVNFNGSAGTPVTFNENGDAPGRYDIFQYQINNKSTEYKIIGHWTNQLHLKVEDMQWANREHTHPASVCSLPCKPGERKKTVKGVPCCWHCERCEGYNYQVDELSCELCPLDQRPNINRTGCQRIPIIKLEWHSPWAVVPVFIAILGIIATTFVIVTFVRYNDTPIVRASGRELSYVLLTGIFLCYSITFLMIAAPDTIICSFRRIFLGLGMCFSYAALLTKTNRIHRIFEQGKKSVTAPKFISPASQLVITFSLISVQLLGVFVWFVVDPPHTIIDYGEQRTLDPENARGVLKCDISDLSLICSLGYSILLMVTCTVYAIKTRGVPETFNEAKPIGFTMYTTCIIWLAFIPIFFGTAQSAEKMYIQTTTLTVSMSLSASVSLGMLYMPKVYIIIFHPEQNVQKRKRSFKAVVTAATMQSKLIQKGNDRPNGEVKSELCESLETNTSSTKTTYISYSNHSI
In the case of `Cc1ccc(SCC(=O)Nc2cc(C)on2)cc1`, the z-score was 1.3.

Turning to `CCOC(=O)C1CCN(C(=O)c2cn(-c3ccccc3)nc2-c2cccnc2)CC1`, the z-score is -0.00115.

As for `CCOC(=O)c1cc(CC)sc1NC(=O)c1cc(OCC)c(OCC)c(OCC)c1`, the z-score is -0.349.

Take `Cc1ccc(OCC(=O)c2ccc3c(c2)CCCC3)cc1C`: the z-score is -0.12.

For the compound `O=C(CSc1nnc2c(Cl)cc(Cl)cn12)NC1CCS(=O)(=O)C1` (stereo unspecified), the z-score was -0.0216.

Regarding `CS/C(=N\N(C)C(N)=O)c1ccccc1`, the z-score is -0.643.

`COC(=O)/C=C1/N/C(=N\c2nc(C)cc(C)n2)N(c2cccc(C)c2)C1=O`: the z-score is -0.0223.

`CSc1nc2ccccc2n1Cc1cccc([N+](=O)[O-])c1` came in with a z-score of 0.0415.

`CCCCCCOc1ccc(OC(=O)c2cccnc2)cc1`: the z-score turned out to be 0.898.

As for `O=C(CSc1nnc2ccccn12)c1ccc(OC(F)F)cc1OC(F)F`, the z-score was -0.0638.

As for `COc1cc(CNCc2ccccn2)ccc1OCc1c(Cl)cccc1Cl`, the z-score was found to be 0.675.

Compound `O=C(N=C1c2ccccc2CN1c1ccccc1)c1cccc([N+](=O)[O-])c1` yielded a z-score of 0.152.

As to `COC(=O)c1nnn(CC(=O)Nc2cccc(Cl)c2C)c1C(=O)OC`, the z-score is -0.193.

As for `COc1ccc2[nH]c(=O)c(CN(C(=O)c3cccnc3)c3ccccc3)cc2c1`, the z-score was -0.372.

With `Cc1ccc(NC(=S)N2CCC(N(C)CC3CCCO3)CC2)c(C)c1` (stereo unspecified), the z-score came to 0.396.

Regarding `Nc1nc(-c2ccc(Cl)cc2)cn1N`, the z-score was 0.0703.

With `CCOC(=O)c1c(-c2ccccc2)[nH]c2ccc(O)cc12`, the z-score is -0.821.

Regarding `CCn1nc(C(=O)N[C@@H](CCSC)c2nc3ccccc3[nH]2)c2ccccc2c1=O`, the z-score was -0.73.

`CCNc1nc(NCC)nc(N2CC(=O)N(CC(=O)OCC)C2=N)n1`: the z-score was -0.154.

Take `c1ccc(-c2cn3c(n2)CCc2ccc4cccnc4c2-3)cc1`: the z-score was -0.0599.

`Cc1ccc(NC(=O)c2ccc(N/N=C/c3cccc(O)c3)c([N+](=O)[O-])c2)cc1`: the z-score was -0.607.

With `O=C(NCc1ccc2c(c1)OCO2)c1ccc(N2CCCCCC2)c([N+](=O)[O-])c1`, the z-score was -0.0656.

Take `O=C(O)CCCC(=O)NCc1ccccn1`: the z-score was -0.279.

Consider `O=C(CSc1ccc(Cl)cc1)NCC1CCCO1` (stereo unspecified), for which the z-score is -0.031.

The compound `Cn1cc([N+](=O)[O-])c(C(=O)Nc2nc(-c3ccc(Cl)cc3)cs2)n1` registered a z-score of 0.61.

Regarding `Cc1cc(C(=O)N/N=C/c2ccc(O)c([N+](=O)[O-])c2)c(C)n1-c1ccc(F)cc1`, the z-score was -0.202.

For `CCCNc1ncnc2c1cnn2-c1ccc(OC)cc1`, the z-score was -0.301.

On to `COc1ccccc1-c1csc(NC(=O)c2cc(-c3cccs3)nc3ccccc23)n1`, for which the z-score is -0.0159.

With `CCOc1ccc(CN2CCN(C(=O)c3cccc(F)c3)CC2)cc1`, the z-score was -0.844.

`Cc1cc(C)c(C)c(S(=O)(=O)Nc2ccc(O)cc2)c1C`: the z-score is -0.118.

In the case of `O=C(Nc1ccc(S(=O)(=O)Nc2nccs2)cc1)c1ccc(S(=O)(=O)N2CCOCC2)cc1`, the z-score was -0.0129.
